PubChem BioAssay AID651812 (National Center for Advancing Translational Sciences (NCATS), 2012)
In all, about 2,100 compounds went through this assay and about 650 (31%) were called active. Inconclusive means that the source gave no clear call. Such entries were picked first, then a sample of the others. Calls come from the whole dose curve; as a rule, active = well fitted inhibition curve with a large enough effect; inconclusive = small, poorly fitted or top-dose-only effect; inactive = flat fitted curve, though single readings scatter. Potencies of inconclusive entries are left out as doubtful fits.

Assay: qHTS for inhibitors of Vif-A3G interactions: Cherry picks; note: nearly all actives have a fitted effect of over 80% in size
Conditions: HeLa A3G-eYFP + Vif (tagged APOBEC3G with the HIV-1 protein that degrades it), 24 h; Potency: eYFP fluorescence increase unless noted; series mostly up to 36.9 µM
Method in brief: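 HeLa cells stably expressing A3G-eYFP and Vif, cultured overnight then exposed to compounds at several concentrations for 24 hours at 37 C, 5% CO2; cellular yellow fluorescence (488 nm ex, 500-530 nm em) imaged on Acumen, MG132 positive control.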
Potency is the fitted concentration of half-maximal effect; tags give direction and shape of the fitted curve.

Row | SMILES | Potency
1 | CN1C/C(=C/c2cccnc2)C(=O)/C(=C/c2cccnc2)C1 | inactive
2 | COc1cc(/C=C2/CC/C(=C/c3ccc(O)c(OC)c3)C2=O)ccc1O | inconclusive [inhibitor, single point]
3 | CCc1cccc2cc3c(N)c(C(=O)Nc4ccc(S(=O)(=O)N5CCCC5)cc4)sc3nc12 | active: 4.98 µM
4 | C(=Cc1c[nH]c2ccccc12)c1ccc2ccccc2n1 | active: 20.6 µM
5 | COc1ccc(-n2nnnc2S(=O)(=O)Cc2ccc(C(=O)O)cc2)cc1 | inactive
6 | C(=Cc1c[nH]c2ccccc12)c1nccc2ccccc12 | active: 18.4 µM
7 | N=C1/C(=C\c2coc3ccccc3c2=O)C(=O)N=C2SC(c3ccncc3)=NN12 | inconclusive [inhibitor, single point]
8 | O=C(Nc1nc2ccc(F)cc2s1)c1ccc([N+](=O)[O-])o1 | inconclusive [inhibitor, single point]
9 | O=C(Nc1ccc(Oc2ccc(NC(=O)Nc3ccccc3Cl)cc2)cc1)Nc1ccccc1Cl | inconclusive [inhibitor, single point]
10 | CCOc1ccc2nc(NC(=O)c3nc(SC(C)C)ncc3Cl)sc2c1 | inconclusive [inhibitor, single point]
11 | Cc1ccnc(N/C=C(\C#N)c2nc(-c3cccc(Br)c3)cs2)c1 | active: 14 µM
12 | O=C(N/N=C/c1ccc([N+](=O)[O-])o1)c1cc2c(ccc3ccccc32)o1 | inconclusive [inhibitor, partial curve]
13 | CCCCCn1c(=O)[nH]c2cc(C(=O)Nc3cc(OC)cc(OC)c3)ccc2c1=O | inconclusive [inhibitor, single point]
14 | COc1ccc(-n2nc3c(N4CCCC(C(=O)NCCc5ccccc5C)C4)nnc(C)c3c2C)cc1 (stereo unspecified) | inconclusive [inhibitor, single point]
15 | O=C(Nc1ccc([N+](=O)[O-])cc1)C(Cc1ccccc1)N1C(=O)c2cccc3cccc(c23)C1=O (stereo unspecified) | active: 14 µM
16 | Cc1cc(C)n2nc(C(=O)N/N=C/c3c4ccccc4cc4ccccc34)nc2n1 | inconclusive [inhibitor, single point]
17 | Cc1ccc(S(=O)(=O)c2cc3ccccc3oc2=Nc2ccc3c(c2)OCO3)cc1 | inconclusive [inhibitor, single point]
18 | Cc1ccc(C2=NN(C(=O)c3cccs3)C(c3ccccc3O)C2)cc1 (stereo unspecified) | inactive
19 | COc1ccccc1N=C1NC(=O)/C(=C/c2ccc(N(C)C)cc2)S1 | inconclusive [inhibitor, single point]
20 | CCN(CC)c1ccc(C=NNc2ccc([N+](=O)[O-])cn2)cc1 | inconclusive [inhibitor, single point]
21 | COc1ccccc1-c1cc(-c2ccccc2)nc(SC(C(N)=O)c2ccccc2)c1C#N (stereo unspecified) | inconclusive [inhibitor, single point]

Row | SMILES | Potency
22 | COc1ccc2c(c1)c1nc3ccccc3nc1n2Cc1ccc(OC(C)C)c(OC)c1 | inconclusive [inhibitor, single point]
23 | CCN1CCN(Cc2ccc(NC(=O)c3ccc(C)c(/C=C/c4cnc(Nc5cc(N6CCNCC6)nc(C)n5)cn4)c3)cc2C(F)(F)F)CC1 | inconclusive [inhibitor, single point]
24 | O=[N+]([O-])c1ccc(-c2ccc(/C=N/Nc3nc(NCc4ccccc4)nc(N4CCOCC4)n3)o2)cc1 | inconclusive [inhibitor, single point]
25 | COc1cc(NC(=O)C2=C(N3CCOCC3)/C(=C\c3ccc(N(C)C)cc3)CCC2)cc(OC)c1OC | inconclusive [inhibitor, single point]
26 | COC1=C(OC)C(=O)C(Sc2ccc3ccccc3c2)=CC1=O | inconclusive [inhibitor, single point]
27 | C=C(C(=O)c1ccccc1)C(C(=C)C(=O)c1ccccc1)c1ccc(OC)cc1 | inconclusive [inhibitor, single point]
28 | O=C(N/N=C/c1sc(=O)n(Cc2ccc(Br)cc2)c1Cl)c1ccco1 | inconclusive [inhibitor, single point]
29 | COc1cc2c3nnc(-c4ccc(F)cc4)c-3cn(Cc3ccccc3F)c2cc1OC | inconclusive [inhibitor, single point]
30 | COc1ccc(/C=C(/C(=O)c2cccs2)N2C=CC=CC2=C(C#N)C#N)cc1 | inconclusive [inhibitor, single point]
31 | CCCn1nc(C(=O)N2CC(=O)Nc3ccccc32)c2ccccc2c1=O | inactive
32 | N#C/C(=C\c1ccc(-c2ccccc2C(=O)O)o1)c1nc2ccccc2[nH]1 | inconclusive [inhibitor, single point]
33 | CN(C)c1ccc(/C=C/c2nc3ccccc3c(=O)[nH]2)cc1 | inconclusive [inhibitor, single point]
34 | Cc1cccc(NC(=O)/C=C/c2ccc([N+](=O)[O-])s2)c1 | active: 4.11 µM
35 | COC(=O)c1sc2cc([N+](=O)[O-])cc(SCC(C)C)c2c1N | active: 16.4 µM
36 | COC(=O)C1=COC(C)C2CN3CCc4c([nH]c5cc(OC)c(OC)cc45)C3CC12 (stereo unspecified) | inconclusive [inhibitor, single point]
37 | COc1ccc2c(C)cc(SCC(=O)N(C)C3CCS(=O)(=O)C3)nc2c1 (stereo unspecified) | inconclusive [inhibitor, single point]
38 | Cc1ccc(NC(=O)c2ccc([N+](=O)[O-])s2)cc1S(=O)(=O)N1CCOCC1 | inactive
39 | COc1cc(/C=C2/SC(=Nc3ccc(O)cc3)NC2=O)ccc1O | inconclusive [inhibitor, single point]
40 | Fc1ccc(CNc2nc3ccc(Cl)cc3n3nnnc23)cc1 | inconclusive [inhibitor, single point]
41 | COC(=O)c1c(-c2cccnc2)csc1NC(=O)c1ccc2c(c1)OCO2 | inconclusive [inhibitor, single point]
